# Results as given in the supplement of paper PMC4604168 (melanoma cell lines).
# The list shows a part of the results. Most values come without repeats; read them as rough.
# Tests used:
# Experiment in all cases: cell count relative to DMSO control; melanoma cells; higher = more viable cells
# Details in all cases: library dose: low library concentration; 72 h
# [1] = tested on: WM115
# [2] = tested on: WM1716
# [3] = tested on: WM1745
# [4] = tested on: WM3526
# [5] = tested on: WM3619
# [6] = tested on: WM451Lu
# 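Note: cell number obtained by counting DAPI-stained nuclei in high-throughput microscope images with image analysis software, screen run in 1,536-well plates.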
Structure (SMILES),cell count [1],cell count [2],cell count [3],cell count [4],cell count [5],cell count [6]
"O=C(O)c1ccc2c(c1)nc(Nc1cccc(Cl)c1)c1ccncc12 + Cn1c(Nc2ccc(C(F)(F)F)cc2)nc2cc(Oc3ccnc(-c4ncc(C(F)(F)F)[nH]4)c3)ccc21 [CHIR265] (first compound 0.4 µM, partner dose 0.08 µM)",51.4%,91%,61.4%,54.6%,68.6%,80.3%
"O=C(O)[C@@H]1[O][Sb](=[O])([O][Sb]2(=[O])[O][C@H]([C@H](O)CO)[C@H](O)[C@H](C(=O)O)[O]2)[O][C@H]([C@H](O)CO)[C@@H]1O (some centres not stated) [stibogluconate] + OCc1c[nH]c2ccccc12 [Indole-3-carbinol] (first compound 2 µM, partner dose 0.8 µM)",98.9%,96.1%,96%,83.9%,96.9%,89.7%
"Cc1cc(N2CCOCC2)cc2[nH]c(-c3c(NC[C@@H](O)c4cccc(Cl)c4)cc[nH]c3=O)nc12 + COc1ccc2c(c1)CCC1C2CCC2(C)C(NCCCCCCN3C(=O)C=CC3=O)CCC12 [U73122] (first compound 0.2 µM, partner dose 0.4 µM)",106%,84.8%,69%,111%,102%,96.1%
"O=C(O)[C@@H]1[O][Sb](=[O])([O][Sb]2(=[O])[O][C@H]([C@H](O)CO)[C@H](O)[C@H](C(=O)O)[O]2)[O][C@H]([C@H](O)CO)[C@@H]1O (some centres not stated) [stibogluconate] + O=c1cc(-c2cccc3c2Sc2ccccc2S3)oc(N2CCOCC2)c1 [KU55933] (first compound 2 µM, partner dose 1 µM)",93.7%,85.9%,95.4%,88.8%,83.8%,111%
"O=C(O)[C@@H]1[O][Sb](=[O])([O][Sb]2(=[O])[O][C@H]([C@H](O)CO)[C@H](O)[C@H](C(=O)O)[O]2)[O][C@H]([C@H](O)CO)[C@@H]1O (some centres not stated) [stibogluconate] + Nc1ncn([C@H]2C[C@H](O)[C@@H](CO)O2)c(=O)n1 [decitabine] (first compound 2 µM, partner dose 0.1 µM)",88.4%,110%,106%,116%,97.7%,108%
"O=C(O)[C@@H]1[O][Sb](=[O])([O][Sb]2(=[O])[O][C@H]([C@H](O)CO)[C@H](O)[C@H](C(=O)O)[O]2)[O][C@H]([C@H](O)CO)[C@@H]1O (some centres not stated) [stibogluconate] + Cn1nnc2c(C(N)=O)ncn2c1=O [temozolomide] (first compound 2 µM, partner dose 2 µM)",101%,85.8%,91.8%,101%,94.3%,103%
"Cn1nnc2c(C(N)=O)ncn2c1=O [temozolomide] + COc1ccc2c(c1)CCC1C2CCC2(C)C(NCCCCCCN3C(=O)C=CC3=O)CCC12 [U73122] (first compound 2 µM, partner dose 0.4 µM)",84.9%,62.7%,78%,120%,83.8%,103%
"O=C(O)c1ccc2c(c1)nc(Nc1cccc(Cl)c1)c1ccncc12 + Oc1nc(-c2ccc(C(F)(F)F)cc2)nc2c1CSCC2 [XAV939] (first compound 0.4 µM, partner dose 2 µM)",108%,56.9%,82.9%,39.4%,109%,107%
"O=C(O)[C@@H]1[O][Sb](=[O])([O][Sb]2(=[O])[O][C@H]([C@H](O)CO)[C@H](O)[C@H](C(=O)O)[O]2)[O][C@H]([C@H](O)CO)[C@@H]1O (some centres not stated) [stibogluconate] + CCCCCCCCCCCC1=C(O)C(=O)C=C(O)C1=O [Embelin] (first compound 2 µM, partner dose 1.2 µM)",102%,95.1%,102%,107%,123%,112%
"O=C(O)[C@@H]1[O][Sb](=[O])([O][Sb]2(=[O])[O][C@H]([C@H](O)CO)[C@H](O)[C@H](C(=O)O)[O]2)[O][C@H]([C@H](O)CO)[C@@H]1O (some centres not stated) [stibogluconate] + O=C(Nc1ccccc1)c1cc([N+](=O)[O-])ccc1Cl [GW9662] (first compound 2 µM, partner dose 2 µM)",89.9%,102%,98.9%,124%,89.9%,98.7%
"O=C(O)[C@@H]1[O][Sb](=[O])([O][Sb]2(=[O])[O][C@H]([C@H](O)CO)[C@H](O)[C@H](C(=O)O)[O]2)[O][C@H]([C@H](O)CO)[C@@H]1O (some centres not stated) [stibogluconate] + CCN(CC)CCCCNc1ncc2cc(-c3cc(OC)cc(OC)c3)c(NC(=O)NC(C)(C)C)nc2n1 [PD173074] (first compound 2 µM, partner dose 0.1 µM)",114%,103%,98.7%,97.8%,109%,111%
"Cn1nnc2c(C(N)=O)ncn2c1=O [temozolomide] + O=C(O)c1ccc(-c2c[nH]c3ncc(-c4ccccc4)cc23)cc1C1CCCC1 [GSK650394] (first compound 2 µM, partner dose 0.16 µM)",88.8%,76.4%,86.6%,84.9%,108%,68.5%
